{"source": "the supplement of paper PMC11417369", "note": "Some of the results follow.", "data": [{"test_system": "PfSIP2 AP2 domain 1 (GST-tagged)", "assay": "gcPBM binding intensity (ln(normalized median fluorescence intensity)); higher = stronger DNA binding", "summary_of_the_method": "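GST-tagged P. falciparum DNA-binding domains, expressed in E. coli (about 25 μg on average), were applied for 1 h to an Agilent 4 × 180k array of primer-extended double-stranded 36-bp intergenic genomic probes plus negative controls. The binding buffer was 1× PBS with 1% milk, 0.2 mg/ml BSA, 0.5% salmon testes DNA and 0.03% Triton X-100. Bound protein was detected with Alexa488 anti-GST antibody and scanned at 488 nm. Binding intensity is the highest Masliner-normalised natural-log median intensity across replicate spots of either probe orientation.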", "values": [{"sequence": "TATTAAAAATACATATGTACTCATAGCATAAAACAT [XGTACX_site8686]", "gcPBM binding intensity (ln)": 7.1}, {"sequence": "TGTGAAAATTATGGGGCATGCAATACTTTAAAAATA [TGCATGCA_site653]", "gcPBM binding intensity (ln)": 7.02}, {"sequence": "CAAATGTAGAAAATGTGTACATAAAAAAAAAAAAAA [XGTACX_site8276]", "gcPBM binding intensity (ln)": 7.16}, {"sequence": "AGTCAATTTTGTGTGTCAACATTTATATAAAGAATG [TGCATGCA_negctrl_site400]", "gcPBM binding intensity (ln)": 7.09}, {"sequence": "TTTTGGCTGATCAGATTTAACAAAAAAAAAAAAAAA [CACACA_negctrl_site671]", "gcPBM binding intensity (ln)": 7.45}, {"sequence": "CCTTCAATTTACATAACACACATTTAACCATAATAA [CACACA_site2394]", "gcPBM binding intensity (ln)": 7.33}, {"sequence": "CAAATATATATTTTCTGTACAAATACAATTAATACT [XGTACX_site2694]", "gcPBM binding intensity (ln)": 6.95}, {"sequence": "TTCCAAAATTGCATTTGTACCCAAAAAATGTATACG [XGTACX_site7680]", "gcPBM binding intensity (ln)": 6.94}, {"sequence": "GTAAGTTTGAATACACGTACAAATTTATTAAAGTCC [XGTACX_site6722]", "gcPBM binding intensity (ln)": 7.25}, {"sequence": "AGATATTAAAACGTTACACACATTTATATATCTTCT [CACACA_site908]", "gcPBM binding intensity (ln)": 6.75}, {"sequence": "ATCAGTCGGCAGGACAGTACACAGTAGCCAGGAAAT [XGTACX_site2003]", "gcPBM binding intensity (ln)": 6.75}, {"sequence": "GCTTTTTATTTTTACCGTACATTATATATGTATATA [XGTACX_site808]", "gcPBM binding intensity (ln)": 7.76}, {"sequence": "ATATTATTAATTTATAGTACTCATTTTTTTTTTTTT [XGTACX_site3536]", "gcPBM binding intensity (ln)": 6.97}, {"sequence": "ATATATATATTTGTGTGTACATATTAATTTGTATGA [XGTACX_site4047]", "gcPBM binding intensity (ln)": 8.58}, {"sequence": "AACGCGAACAATTTATAGATAACTTTTAATTATTAT [GTGCAC_negctrl_site179]", "gcPBM binding intensity (ln)": 6.76}, {"sequence": "AATATATATATAGGATGTACACATAATTCAAATACA [XGTACX_site6368]", "gcPBM binding intensity (ln)": 7.31}, {"sequence": "ATTTAATACAAATACACACACAAATATATACATATA [CACACA_site3747]", "gcPBM binding intensity (ln)": 7.05}, {"sequence": "TATATATATATAAACTGTACTATTTTATGTTAAAAG [XGTACX_site3630]", "gcPBM binding intensity (ln)": 9.05}, {"sequence": "ATGGTATATCCAAATAAACACACGTAAATACATAAA [CACACA_site1682]", "gcPBM binding intensity (ln)": 6.93}, {"sequence": "ATACATTTTTGTAAAAGTACATATACATGCCCCCTT [XGTACX_site1367]", "gcPBM binding intensity (ln)": 8.44}, {"sequence": "TCGAACGTATCATGTGTACACACAAATTGTTTTTTT [CACACA_site8623]", "gcPBM binding intensity (ln)": 7.2}, {"sequence": "CCTTGCCCCAGGAGTTCACACACATAATAGATTGTC [CACACA_site8138]", "gcPBM binding intensity (ln)": 7.17}, {"sequence": "GTATAAAAGTAACTAGTGCATTACATATGAATAAAA", "gcPBM binding intensity (ln)": 8.48}, {"sequence": "AGATATTTTTCTTAAGTACACACTAATTAGAAACTA [CACACA_site7897]", "gcPBM binding intensity (ln)": 6.93}, {"sequence": "TTTTTATTTTAAAAGAATAATTATCTAATATCTATA [CACACA_negctrl_site371]", "gcPBM binding intensity (ln)": 6.77}, {"sequence": "TTACCTCTTTGAAATATACACACTAAACATATCAAC [CACACA_site2455]", "gcPBM binding intensity (ln)": 7.16}, {"sequence": "GACACCTGCATGAAAGTGCAAAATAGAAAAGGAACA [GTGCAC_site9593]", "gcPBM binding intensity (ln)": 10}, {"sequence": "AAATACCTTATATATACACACTATGTTTTTCTTTTT [CACACA_site4792]", "gcPBM binding intensity (ln)": 6.96}, {"sequence": "AACACGCACAGACACACACACAAAAATGATTAAAAA [CACACA_site7195]", "gcPBM binding intensity (ln)": 7.47}, {"sequence": "AAGGAATAATAATAAATGTAAAGAAAAGCATACTGA [CACACA_negctrl_site36]", "gcPBM binding intensity (ln)": 6.9}, {"sequence": "AAAAGAAGAAACAAAACACACACAGTCTTCTTTTCT [CACACA_site9015]", "gcPBM binding intensity (ln)": 6.86}, {"sequence": "TTTATGAGGTTACTATGTACGCAAATTATGTAATAA [XGTACX_site325]", "gcPBM binding intensity (ln)": 7.25}, {"sequence": "ATTTGTGTTATTCGAAGTACGGATCATTTGAAATAA [XGTACX_site2510]", "gcPBM binding intensity (ln)": 7.03}, {"sequence": "TCAAATTATTAAAATACACACATATTATATATATAT [CACACA_site2530]", "gcPBM binding intensity (ln)": 8.73}, {"sequence": "AGCAATTTGGGGTGTACACACACCTTATTTAAATTA [CACACA_site1157]", "gcPBM binding intensity (ln)": 6.97}, {"sequence": "TATATCTCTTTATTCACACATACGTTTTAAAATAAT [CACACA_site5542]", "gcPBM binding intensity (ln)": 7.26}, {"sequence": "TAATAAAACATATATACACACATTAGATATACATAT [CACACA_site6897]", "gcPBM binding intensity (ln)": 7.03}, {"sequence": "TTCCCAACATGATATTGTACATTTAATTATAATTAA [XGTACX_site7029]", "gcPBM binding intensity (ln)": 7.31}, {"sequence": "TATAAATAAAGACACACACACACACCGTATAATTAC [CACACA_site7829]", "gcPBM binding intensity (ln)": 7}, {"sequence": "TATATTAAAAAAAAATGTACACATATATATATATAT [XGTACX_site4524]", "gcPBM binding intensity (ln)": 9.46}, {"sequence": "TATATGTTTGAATATACACACAACATATATATATAT [CACACA_site4066]", "gcPBM binding intensity (ln)": 9.49}, {"sequence": "ATATTATTAATTTGTTGTACAGTTCTTTATTTATAG [XGTACX_site7932]", "gcPBM binding intensity (ln)": 7.34}, {"sequence": "CCAGGAAAAATTTATTGTACATATATTTTTATGCTC [XGTACX_site7154]", "gcPBM binding intensity (ln)": 7.01}, {"sequence": "TATTTTTGGTTATGTGTGCACTATGAACAACAAAAT", "gcPBM binding intensity (ln)": 10.5}, {"sequence": "TATTTTTAACAGTGCACACATAACTTAATTATATGT [CACACA_site2194]", "gcPBM binding intensity (ln)": 10.6}, {"sequence": "GTGCATAAATCATACACACACACATATATATATATA [CACACA_site2423]", "gcPBM binding intensity (ln)": 9.48}, {"sequence": "GAAAGAAAATATTAAGTGCATATTTTAATGATACAA [GTGCAC_site9712]", "gcPBM binding intensity (ln)": 8.21}, {"sequence": "ATAAAAATAAAAAAAACACACATACCTTATTTTTGT [CACACA_site5452]", "gcPBM binding intensity (ln)": 7.17}, {"sequence": "ATTTTCCATATATTTTGTACATATGTATATTTTCCC [XGTACX_site7795]", "gcPBM binding intensity (ln)": 7.03}, {"sequence": "AAATATAAATGGTAATACACATACACACACACATAC [XGTACX_negctrl_site459]", "gcPBM binding intensity (ln)": 7.49}, {"sequence": "AATCAAAATAAATTAACACACAATTTTAATATTGTT [CACACA_site10]", "gcPBM binding intensity (ln)": 6.82}, {"sequence": "TATAAAAAATTATGTTGTACGTAATATAAAATTTGT [XGTACX_site7122]", "gcPBM binding intensity (ln)": 7.32}, {"sequence": "ACCCTCATATTATAGACACACACAAAAAAAATAAAA [CACACA_site7941]", "gcPBM binding intensity (ln)": 7.51}, {"sequence": "AGAAATGAAATATACACACATACATATATACATATA [CACACA_site4033]", "gcPBM binding intensity (ln)": 7.21}, {"sequence": "TAAATACACCCTAGACGTACATAAAAATTTAGTATG [XGTACX_site2512]", "gcPBM binding intensity (ln)": 7.07}, {"sequence": "ATTAATAATGAGTTATGTACATACATATTTTAAGAT [XGTACX_site7543]", "gcPBM binding intensity (ln)": 7.16}, {"sequence": "ATATTTATATATATGTGTACATATAGAAACATAAAA [XGTACX_site4355]", "gcPBM binding intensity (ln)": 7.01}]}]}
